Target: T1, glucagon (human, cloned into CHO cells) receptor (Homo sapiens, UniProt P47871)
T1 construct: host or cells: CHO cells
Assay: cAMP stimulation cellular assay (DiscoveRx LeadHunter), glucagon receptor
Type: cell-based

T1 sequence (P47871 26-477): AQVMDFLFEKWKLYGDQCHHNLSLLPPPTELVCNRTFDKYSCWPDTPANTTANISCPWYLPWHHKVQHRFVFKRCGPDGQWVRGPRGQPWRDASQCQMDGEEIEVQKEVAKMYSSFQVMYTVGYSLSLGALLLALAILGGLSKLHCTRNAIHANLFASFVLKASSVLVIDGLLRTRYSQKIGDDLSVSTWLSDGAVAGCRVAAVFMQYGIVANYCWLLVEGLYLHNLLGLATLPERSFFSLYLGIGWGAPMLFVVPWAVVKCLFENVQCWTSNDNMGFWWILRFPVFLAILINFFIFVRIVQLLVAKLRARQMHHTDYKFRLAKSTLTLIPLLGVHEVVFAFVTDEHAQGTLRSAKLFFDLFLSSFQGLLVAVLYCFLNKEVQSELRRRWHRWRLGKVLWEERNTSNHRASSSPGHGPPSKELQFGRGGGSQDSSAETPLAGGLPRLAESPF

For `CC[C@H](C)[C@H](NC(=O)[C@H](Cc1ccccc1)NC(=O)[C@H](CCC(=O)O)NC(=O)[C@@H]1CCCCNC(=O)CC[C@H](NC(=O)[C@H](CC(=O)O)NC(=O)[C@H](CC(C)C)NC(=O)[C@H](Cc2ccc(O)cc2)NC(=O)[C@H](CCCCN)NC(=O)[C@H](CO)NC(=O)[C@H](Cc2ccc(O)cc2)NC(=O)[C@H](CC(=O)O)NC(=O)[C@H](CO)NC(=O)[C@@H](NC(=O)[C@H](Cc2ccccc2)NC(=O)[C@@H](NC(=O)CNC(=O)[C@H](CCC(N)=O)NC(=O)C(C)(C)NC(=O)[C@@H](N)Cc2c[nH]cn2)[C@@H](C)O)[C@@H](C)O)C(=O)N[C@@H](CCC(N)=O)C(=O)N[C@@H](C)C(=O)N[C@@H](C)C(=O)N1)C(=O)N[C@@H](CCCCNC(=O)[C@H]1O[C@@H](OCCCCCCCCCCCCCCCCCC(=O)O)[C@H](O)[C@@H](O)[C@@H]1O)C(=O)N[C@@H](Cc1c[nH]c2ccccc12)C(=O)N[C@@H](CC(C)C)C(=O)N[C@@H](CC(C)C)C(=O)N[C@@H](CCC(N)=O)C(=O)N[C@H](C(N)=O)[C@@H](C)O` [EU-A1872], the “Ovalbumin vs. BSA-fold improv/worsen, GCG R” value was 30 fold.

From US12171806B2, “Therapeutic regimens and methods for lowering blood glucose and/or body weight using GLP-1R and GCGR balanced agonists” (priority 2021, dated 2024)
